Measured values published in the RNAGym collection of RNA variant scans (doi:10.1093/nar/gkz1192).
Read counts are not given, so values of variants with three or more changes are uncertain.

B1: CPEB3 Ribozyme (parent)
chain: UAACAGGGGGCCACAGCAGAAGCGUUCACGUCGCAGCCCCUGUCAGAUUCUGGUGAAUCUGCGAAUUCUGCUGUAUAUCUC

Variants of: B1
Experiment: self-cleavage, relative activity (ratio to wild type); higher = more cleavage; in vitro, sequencing
Procedure, shortened: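 Barcoded CPEB3 ribozyme mutants, produced by rounds of error-prone PCR, self-cleaved while being transcribed with T7 RNA polymerase for 5 hours at 37°C and during a subsequent 15 min DNase I step before EDTA was added. Sequencing of template-switched cDNA on Illumina gave cleaved and total reads, and DNA sequencing assigned barcodes to variants. Each variant's relative activity is its cleaved/total read fraction divided by the unmutated ribozyme's fraction, averaged across three batches. A variant needed a minimum of 5 reads.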

| Variant | self-cleavage |
| --- | --- |
| UAACAGGGGGCCACAGCAGAAGCGUGCACGUCCCAGCCCCUGUCAGAUUCAGGUGAAUCCGCGUAUUCAGCUGUAUAUCCC [U26G G33C U51A U60C A64U U69A U80C] | 0.05 |
| UAACAGGGGGCCACAGCAGAAGCGUGCACGUCGCAGCCCCUGUCAGAUUCUCGUGAGUCUGCGAAUUUUGCUGUAUAUCUC [U26G G52C A57G C68U] | 0.14 |
| UAACAGGGGGCCACAGCAGAAGCGUGCACGUCGCAGCCCCAGUCAGAUUCUGGUGAAUCUGCGGAUUCUGCUGUAUAUCUC [U26G U41A A64G] | 0.21 |
| UAACAGGGGGCCACAGCAGAAGCGUGCACGUCGCAGCCCCCGUCAGAUUCUGGUGAAUCUGCGAAUUCUGCAGUAUAUCUC [U26G U41C U72A] | 0.37 |
| UAACAGGGGGCCACAGCAGAAGCGUGCACGUCGCAGCCCCCGUCAGAUUCUGGUGAAUCUGCGAAUUCUGCAGUUUAUCUC [U26G U41C U72A A75U] | 0.24 |
| UAACAGGGGGCCACAGCAGAAGCGUGCACGUCGCAGCCCCUGUCAGAUACUGGUGAAUCUGCGAAUUCUGCAGUAUAUCUC [U26G U49A U72A] | 0.16 |
| UAACAGGGGGCCACAGCAGAAGCGUGCACGUCGCAGCCCCUGUCAGAUUCUGGCGGAUCUGCGAAUUCUGCUGUAUAUCUC [U26G U54C A56G] | 0.1 |
| UAACAGGGGGCCACAGCAGAAGCGUUAACGUCGCGGCCCCUGUCAGGUUCUGGUGAAUCUGCGAAUUCUGCUGUAUAUCUC [C27A A35G A47G] | 0.14 |
| UAACAGGGGGCCACAGCAGAAGCGUUAACGUCGCGGCCCCUGUCAGAUUCUAGUGAAUCUGCGAAUUCCGCUGUAUAUCUC [C27A A35G G52A U69C] | 0.16 |
| UAACAGGGGGCCACAGCAGAAGCGUUAACGUAGCAGCCCCUGUCAGAUUCUGGUGAAUCUGCGAAUUCAGCUGUAUAUCUC [C27A C32A U69A] | 0.14 |
| UAACAGGGGGCCACAGCAGAAGCGUUAACGUGGCAGCCCCUGUCAGAUUCUGGUGAGUCUGCGAAUACUGCCGUAUAUCUC [C27A C32G A57G U67A U72C] | 0.12 |
| UAACAGGGGGCCACAGCAGAAGCGUUAACGUCGCAGUCCCUGUCAGAUUCUGGUGAAUCUGCGAAUACUGCUGUAUAUCUC [C27A C37U U67A] | 0.16 |
| UAACAGGGGGCCACAGCAGAAGCGUUAACGUCGCAGCACCUAUCAGAUUCUGGUGAAUCUGCGAAUUCUGCUGUAUAUCUC [C27A C38A G42A] | 0.09 |
| UAACAGGGGGCCACAGCAGAAGCGUUAACGUCGCAGCCCUUGUCAGAUUCUGGUGAAUCUGCGAACUCUGCUGUAUAUCUC [C27A C40U U66C] | 0.09 |
| UAACAGGGGGCCACAGCAGAAGCGUUAACGUCGCAGCCCCAGUCAGGUUCUGGUGGAUCCGCGAAUUCUGCUGUAUAUCUC [C27A U41A A47G A56G U60C] | 0.09 |
| UAACAGGGGGCCACAGCAGAAGCGUUAACGUCGCAGCCCCAGUCAGAUUCUGGUGAAUCUGCGGACUCUGCUGUAAAUCUC [C27A U41A A64G U66C U76A] | 0.07 |
| UAACAGGGGGCCACAGCAGAAGCGUUAACGUCGCAGCCCCUGUCAGAUUCUGGCGAACCUGCGAAUUCUGCUGUAUAUCUC [C27A U54C U58C] | 0.05 |

| Variant | self-cleavage |
| --- | --- |
| UAACAGGGGGCCACAGCAGAAGCGUUAACGUCGCAGCCCCUGUCAGAUUCUGGUGAAACUGCGAAUUCUGCUGUAUAUUUC [C27A U58A C79U] | 0.24 |
| UAACAGGGGGCCACAGCAGAAGCGUUGACGUCGCAGCCCCUGUCAGAUUCUGGUGGGUCUGCGAAUUCUGCUGUAUAUCUC [C27G A56G A57G] | 0.17 |
| UAACAGGGGGCCACAGCAGAAGCGUUGACGUCGCAGCCACUGUCGGAUUCUGGUGAAUCUGCGAAUUCUGCUGUAUAUCUC [C27G C39A A45G] | 0.25 |
| UAACAGGGGGCCACAGCAGAAGCGUUGACGUCGCAGCCCCUGUCAGAUUCUGGCGAAUCUGCGAAUUCUGCUGUAUAUCUA [C27G U54C C81A] | 0.28 |
| UAACAGGGGGCCACAGCAGAAGCGUUGACGUCGCAGCCCCUGUCAGAUUCUGGUGAACCUGCGAAUUCAGCUGUUUAUCUC [C27G U58C U69A A75U] | 0.12 |
| UAACAGGGGGCCACAGCAGAAGCGUUUGCGUCGCCGCCCCUGUCAGAUUCUGGCGUAUCUGCGAAUUCUGCUGUAUAUCUC [C27U A28G A35C U54C A56U] | 0.11 |
| UAACAGGGGGCCACAGCAGAAGCGUUUGCGUCGCAGCCCCCGUCAGAUUCUAGCGAAUCUGCGAAUUCAGCUGUAUAUCUC [C27U A28G U41C G52A U54C U69A] | 0.06 |
| UAACAGGGGGCCACAGCAGAAGCGUUUACGUCGCUGCCCCAGUCAGAUUCUGGUGAAUCCGCGAAUUCAGCCGUAUAUCCC [C27U A35U U41A U60C U69A U72C U80C] | 0.06 |
| UAACAGGGGGCCACAGCAGAAGCGUUUACGUCGCUGCCCCUGUCAGAUUCUGGUGAAUCUGCGAAUCCUGCUGUAUUUCUC [C27U A35U U67C A77U] | 0.09 |
| UAACAGGGGGCCACAGCAGAAGCGUUUACGUCGCAGCCCCUGUCGGAUUCUGGUGAAUCUGCGAAAUCUGCUGUAUAUCUC [C27U A45G U66A] | 0.07 |
| UAACAGGGGGCCACAGCAGAAGCGUUUACGUCGCAGCCCCUGUCUGAUUCUGGUGAAUCUGCGAAUUCUUCUGUAUAUCUC [C27U A45U G70U] | 0.07 |
| UAACAGGGGGCCACAGCAGAAGCGUUUACGUCGCAGCCCCUGUCAGGUUCUGGUGAGUCUGCGAAUUCUGCUGUAUAUCUC [C27U A47G A57G] | 0.12 |
| UAACAGGGGGCCACAGCAGAAGCGUUUACGUCGCAGCCCCUGUCAGAUUCUGGUGAAUCUGCGGAUUCUGCAGUAUAUCUC [C27U A64G U72A] | 0.14 |
| UAACAGGGGGCCACAGCAGAAGCGUUUACCUCGCAGCCCCUGUCAGAUUCUGGUGAAUCUGGGAAUUCUGCUGUAUAUCUC [C27U G30C C62G] | 0.11 |
| UAACAGGGGGCCACAGCAGAAGCGUUUACGUCUCAGACCCUGUCAGACUCUGGUGAAUCUGCGAAUUCUGCUGUAUAUCUC [C27U G33U C37A U48C] | 0.08 |
| UAACAGGGGGCCACAGCAGAAGCGUUUACGCCGCGGCCCCUGUCAGAUUCUGGAGAAUCUGCGAAUUCUGCUGUAUACCUC [C27U U31C A35G U54A U78C] | 0.19 |
| UAACAGGGGGCCACAGCAGAAGCGUUUACGCCGCAGCCCCUGUCAGAUUCUGGUGAAUCUGCGAAAUCAGCUGAAUAUCUC [C27U U31C U66A U69A U74A] | 0.05 |
